# Measurements published in PubChem BioAssay AID686979 (National Center for Advancing Translational Sciences (NCATS), 2013).
# Values joined by “and” are separate entries in the source; they are usually repeats but may differ in a detail not shown here. Equal values may be shown once. Hit rate of the full screen: of about 420,000 compounds, about 50,000 (12%) were called active. Inconclusive results, whose numbers are uncertain, are shown with a selection of clear calls. Calls come from the whole dose curve; as a rule, active = well fitted inhibition curve with a large enough effect; inconclusive = small, poorly fitted or top-dose-only effect; inactive = flat fitted curve, though single readings scatter. Potencies of inconclusive entries are doubtful fits and often do not repeat.
# Assay: qHTS for Inhibitors of human tyrosyl-DNA phosphodiesterase 1 (TDP1): qHTS in cells in presence of CPT; note: nearly all actives have a fitted effect of over 55% in size
# Conditions: chicken DT40 Tdp1-/-;hTDP1 cells + 20 nM CPT, ATP luminescence, 48 h
# In short: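 Cell growth measured by CellTiter-Glo luminescence after a minimum 48 h, 37 C compound exposure with 20 nM CPT in Tdp1-knockout DT40 cells stably expressing hTDP1, seeded 400/well; qHTS titration format.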
# [1] = activity change, negative = growth inhibition: at 46.2 µM (top of the series) unless noted
# % is set by controls: 0 for no effect and ±100 for the full control effect; potency is the fitted concentration of half-maximal effect; tags give direction and shape of the fitted curve.
smiles,measurement,setting,value
O=S(=O)(c1ccc(F)cc1)N1CCC2(CC1)OCCN2S(=O)(=O)c1cccs1,Potency,[1],"inconclusive: 25.9 µM [inhibitor, partial curve]"
CC(=O)c1c(C)oc2ccc(NS(=O)(=O)c3ccc(F)cc3C)cc12,Potency,[1],active: 23.1 µM
CN1C(C(=O)Nc2ccc(F)cc2F)=CC(c2ccco2)=NS1(=O)=O,"activity change, negative = growth inhibition",[1],inconclusive: -30.5% [inhibitor]
same,"activity change, negative = growth inhibition",at 46.2 µM (top of the series),inactive: -16.3%
CC(=O)c1cccc(NC(=O)Nc2c(C)nn(C)c2C)c1,Potency,[1],"inconclusive: 0.0461 µM [inhibitor, full curve, poor fit]"
COc1ccccc1CNC(=O)C1CCCN(S(=O)(=O)c2ccc3c(c2)CCCN3C(C)=O)C1 (configuration not stated),Potency,[1],"inconclusive: 18.4 µM [inhibitor, single point]"
C=C(CC1([C@@H](NP(=O)(c2ccccc2)c2ccccc2)[C@H]2C[C@@H]2CCCC)CC1)c1ccccc1,Potency,[1],"inconclusive: 23.1 µM [inhibitor, single point]"
CCc1ccc2nc(N(CCCN(C)C)C(=O)c3ccc(S(=O)(=O)N4CCCc5ccccc54)cc3)sc2c1,Potency,[1],"inconclusive: 29.1 µM [inhibitor, single point]"
CC(C)(Oc1ccc(Cl)cc1)C(=O)NC1=NN(c2ccccc2)C(=O)C1,Potency,[1],"inconclusive: 32.6 µM [inhibitor, single point]"
O=C(Cn1ncc2c1-c1ccccc1OC2)N1CCN(c2ccccc2F)CC1,"activity change, negative = growth inhibition",[1],inconclusive: -33.6% [inhibitor]
CN(Cc1ccccc1)C(=O)c1ccc(NC(=O)Cc2cccc(NC(=O)C3CCCN(C(=O)C4CCC4)C3)c2)cc1 (configuration not stated),Potency,[1],"inconclusive: 23.1 µM [inhibitor, single point]"
Cc1ccccc1C(=O)Nc1ccc(-c2nc3ccc(C(=O)c4ccccc4)cc3[nH]2)cc1,Potency,[1],active: 9.2 µM
Cc1[nH]c2ccccc2c1C(=O)CN1CCCC(C)C1 (configuration not stated),Potency,[1],inactive
COc1ccccc1C(NC(=O)C1CCN(CCOc2ccc(Cl)cc2)CC1)c1ccccn1 (configuration not stated),Potency,[1],"inconclusive: 20.6 µM [inhibitor, single point]"
O=S1(=O)CC(N2CC=CC2)CN1Cc1cn(Cc2ccc(Cl)cc2)nn1 (configuration not stated),Potency,[1],inactive
CN(C)c1ccc(NC(=O)c2sc(SCC(=O)Nc3nccs3)nc2N)cc1,Potency,[1],"inconclusive: 20.6 µM [inhibitor, single point]"
CCOc1ccc(NC(=O)CN(C)CC(=O)Nc2cccc(Cl)c2C)cc1OCC,Potency,[1],"inconclusive: 23.1 µM [inhibitor, partial curve]"
Cc1cc([N+](=O)[O-])ccc1NC(=O)c1cccc(NC(=O)C(C)C)c1,Potency,[1],"inconclusive: 29.1 µM [inhibitor, single point]"
COc1ccc2oc(C(=O)NN3C(C)CCCC3C)c(C)c2c1 (configuration not stated),"activity change, negative = growth inhibition",[1],inconclusive: -30.1% [inhibitor]
O=C(NC(C(=O)O)c1ccccc1)c1ccccc1 (configuration not stated),Potency,[1],inactive
CCOc1cc(/C=C\[N+](=O)[O-])ccc1OCC(=O)N1CCOCC1,Potency,[1],active: 2.59 µM
Clc1ccccc1OCCNc1nc(NCC2CC2)nc2ccsc12,Potency,[1],active: 16.4 µM
CC(C)(C)n1ncc2c(=O)n(Cc3ccc(Cl)cc3)cnc21,Potency,[1],"inconclusive: 23.1 µM [inhibitor, single point]"
COc1cc(Cl)cc(/C=C/c2ccc3ccccc3n2)c1OC(C)=O,Potency,[1],"inconclusive: 25.9 µM [inhibitor, single point]"
CN(c1ccccc1)S(=O)(=O)c1ccc(Cl)c(C(=O)OCC(=O)c2c(N)n(C)c(=O)n(C)c2=O)c1,Potency,[1],active: 23.1 µM
CN(C(=O)c1cccc(NC(=O)Cc2ccc(NC(=O)C3CCCN(C(=O)C4CCCCC4)C3)cc2)c1)C1CC1 (configuration not stated),Potency,[1],"inconclusive: 29.1 µM [inhibitor, single point]"
C/C(=N/Nc1ccccc1[N+](=O)[O-])c1ccc(C)c([N+](=O)[O-])c1,Potency,[1],"inconclusive: 11.6 µM [inhibitor, partial curve]"
COc1ccc(N2CCN(C(=O)c3cn(CC(C)C)c(=O)c4c3c3ccccc3n4C)CC2)cc1,Potency,[1],"inconclusive: 29.1 µM [inhibitor, single point]"
CCOc1ccc(NC(=S)N(CCOC)C2CCN(C(C)C)CC2)cc1,Potency,[1],inactive
COc1ccc(-n2c(N)c(C(=O)NCc3ccco3)c3nc4ccccc4nc32)cc1OC,Potency,[1],"inconclusive: 9.2 µM [inhibitor, partial curve, poor fit]"
CNC(=O)c1ccccc1NC(=O)c1cccc(S(=O)(=O)N2CCC(C)CC2)c1,Potency,[1],active: 20.6 µM
CCOC(=O)c1cc(-c2ccccc2)n(-c2cccc(C(=O)Nc3ccc(OC)cc3)c2)c1C,Potency,[1],"inconclusive: 16.4 µM [inhibitor, partial curve]"
CCNC(=O)Cc1ccc(Br)cc1,Potency,[1],inactive
O=C(Cn1c(=O)c2cccn2c2ccccc21)Nc1cc(F)ccc1F,Potency,[1],"inactive and inconclusive: 18.4 µM [inhibitor, single point]"
CC1(C)CC(=O)C2=C(C1)N(c1ccccc1C#N)C(N)=C(C#N)C2c1cccs1 (configuration not stated),Potency,[1],"inconclusive: 23.1 µM [inhibitor, single point]"
O=Cc1cn(CC(=O)Nc2ccc(F)cc2)c2ccccc12,Potency,[1],"inconclusive: 14.6 µM [inhibitor, partial curve]"
CCc1ccc(CN2CCCC(CNC(=O)c3cc(OC)cc(OC)c3)C2)cc1 (configuration not stated),Potency,[1],"inconclusive: 14.6 µM [inhibitor, single point]"
CC(Oc1ccc(F)cc1)C(=O)Nc1cc(Cl)ccc1-n1cncn1 (configuration not stated),Potency,[1],"inconclusive: 20.6 µM [inhibitor, single point]"
COc1ccc2oc(C(=O)OCC(=O)NC3CCCCC3)c(C)c2c1,Potency,[1],inactive
COc1ccc(C2CC(c3c(-c4ccccc4)c4cc(Cl)ccc4[nH]c3=O)=NN2S(C)(=O)=O)cc1OC (configuration not stated),Potency,[1],"inconclusive: 9.2 µM [inhibitor, partial curve, poor fit]"
CC(NC(=O)CN1C(=O)NC(Cc2ccccc2)(Cc2ccccc2)C1=O)C12CC3CC(CC(C3)C1)C2 (configuration not stated),Potency,[1],"inconclusive: 25.9 µM [inhibitor, single point]"
CCC(C(=O)NCCc1ccc(SC)cc1)n1nc(C)c2sc3ccccc3c2c1=O (configuration not stated),Potency,[1],"inconclusive: 18.4 µM [inhibitor, single point]"
